Laboratory results from the supplement of paper PMC4967469.

What was measured:
Test in all cases: Viability of human cancer cell lines after 72 h of drug (GDSC screen)
(5Z)-7-Oxozeaenol = compound: COc1cc(O)c2c(c1)/C=C/C[C@H](O)[C@H](O)C(=O)/C=C\C[C@H](C)OC2=O [(5Z)-7-Oxozeaenol]; conditions: top dose 10 µM; top dose inferred
Protocol: (§1)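 Human cancer cell lines in 384-well plates, medium with 10% serum, drug for 72 h over a 256-fold dose range (nine 2-fold or five 4-fold steps up to the top dose). Adherent lines were fixed and stained with the nucleic acid dye Syto60, suspension lines read with resazurin; signal relative to control wells, capped at 0 and 100%. One two-parameter sigmoid per drug and line, fitted in a mixed model over all curves with the slope shared within a line.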

Cytarabine = compound: Nc1ccn([C@@H]2O[C@H](CO)[C@@H](O)[C@@H]2O)c(=O)n1 [Cytarabine]; conditions: top dose 2 µM
Protocol: as §1

ABT-888 = compound: C[C@]1(c2nc3c(C(N)=O)cccc3[nH]2)CCCN1 [ABT-888]; conditions: top dose 5 µM; top dose inferred
Protocol: as §1

MPS-1-IN-1 = compound: COc1cc(N2CCC(O)CC2)ccc1Nc1cc(Nc2ccccc2S(=O)(=O)C(C)C)c2cc[nH]c2n1 [MPS-1-IN-1]; conditions: top dose 20 µM; top dose inferred
Protocol: as §1

KU-55933 = compound: O=c1cc(-c2cccc3c2Sc2ccccc2S3)oc(N2CCOCC2)c1 [KU-55933]; conditions: top dose 10 µM
Protocol: as §1

Zibotentan = compound: COc1nc(C)cnc1NS(=O)(=O)c1cccnc1-c1ccc(-c2nnco2)cc1 [Zibotentan]; conditions: top dose 20 µM; top dose inferred
Protocol: as §1

CHIR-99021 = compound: Cc1cnc(-c2cnc(NCCNc3ccc(C#N)cn3)nc2-c2ccc(Cl)cc2Cl)[nH]1 [CHIR-99021]
Protocol: as §1

ABT-869 = compound: Cc1ccc(F)c(NC(=O)Nc2ccc(-c3cccc4[nH]nc(N)c34)cc2)c1 [ABT-869]; conditions: top dose 1.024 µM; top dose inferred
Protocol: as §1

Thapsigargin = compound: C/C=C(/C)C(=O)O[C@H]1C(C)=C2[C@H]([C@@H]1OC(=O)CCCCCCC)[C@@](C)(OC(C)=O)C[C@H](OC(=O)CCC)[C@@]1(O)[C@H]2OC(=O)[C@@]1(C)O [Thapsigargin]; conditions: top dose 0.512 µM; top dose inferred
Protocol: as §1

GSK269962A = compound: CCn1c(-c2nonc2N)nc2cnc(Oc3cccc(NC(=O)c4ccc(OCCN5CCOCC5)cc4)c3)cc21 [GSK269962A]; conditions: top dose 5 µM; screen: GDSC drug entry 1192; top dose inferred
Protocol: as §1

QL-X-138 = compound: C=CC(=O)Nc1cc(-n2c(=O)ccc3cnc4ccc(-c5cn[nH]c5)cc4c32)ccc1C [QL-X-138]; conditions: top dose 10.24 µM; top dose inferred
Protocol: as §1

CP466722 = compound: COc1cc2ncnc(-n3nc(-c4ccccn4)nc3N)c2cc1OC [CP466722]; conditions: top dose 16 µM; top dose inferred
Protocol: as §1

[1] = top dose 2.56 µM, screen: GDSC drug entry 154
[2] = top dose 10 µM, screen: GDSC drug entry 1241, top dose inferred

RPMI-2650 (head and neck, adherent) showed an AUC ((5Z)-7-Oxozeaenol) of 0.638, an IC50 ((5Z)-7-Oxozeaenol) of 1560 nM and an AUC (Cytarabine) of 0.632. For the same cell line, the IC50 (Cytarabine) was 298 nM, the AUC (ABT-888) was 0.983 and the IC50 (ABT-888) was > 5000 nM. For the same cell line, the AUC (MPS-1-IN-1) was 0.943, the IC50 (MPS-1-IN-1) was > 20000 nM and the AUC (KU-55933) was 0.965. The IC50 (KU-55933) was > 10000 nM, the AUC (Zibotentan) was 0.985 and the IC50 (Zibotentan) was > 20000 nM. The AUC (CHIR-99021; [1]) was 0.972, the IC50 (CHIR-99021; [1]) was > 2560 nM and the AUC (CHIR-99021; [2]) was 0.982. For the same cell line, the IC50 (CHIR-99021; [2]) was > 10000 nM, the AUC (ABT-869) was 0.984 and the IC50 (ABT-869) was > 1020 nM. The AUC (Thapsigargin) was 0.216, the IC50 (Thapsigargin) was 4.31 nM and the AUC (GSK269962A) was 0.947. The IC50 (GSK269962A) was > 5000 nM, the AUC (QL-X-138) was 0.721 and the IC50 (QL-X-138) was 2880 nM. The AUC (CP466722) was 0.862 and the IC50 (CP466722) was 15500 nM.

In the case of RT4 (bladder, adherent), the AUC ((5Z)-7-Oxozeaenol) is reported as 0.746, the IC50 ((5Z)-7-Oxozeaenol) is reported as 3300 nM and the AUC (Cytarabine) is reported as 0.908. For the same cell line, the IC50 (Cytarabine) was > 2000 nM, the AUC (ABT-888) was 0.985 and the IC50 (ABT-888) was > 5000 nM. For the same cell line, the AUC (MPS-1-IN-1) was 0.916, the IC50 (MPS-1-IN-1) was > 20000 nM and the AUC (KU-55933) was 0.987. For the same cell line, the IC50 (KU-55933) was > 10000 nM, the AUC (Zibotentan) was 0.986 and the IC50 (Zibotentan) was > 20000 nM. The AUC (CHIR-99021; [1]) was 0.967, the IC50 (CHIR-99021; [1]) was > 2560 nM and the AUC (CHIR-99021; [2]) was 0.898. For the same cell line, the IC50 (CHIR-99021; [2]) was > 10000 nM, the AUC (ABT-869) was 0.978 and the IC50 (ABT-869) was > 1020 nM. It also gave an AUC (Thapsigargin) of 0.245, an IC50 (Thapsigargin) of 5.63 nM and an AUC (GSK269962A) of 0.981. For the same cell line, the IC50 (GSK269962A) was > 5000 nM, the AUC (QL-X-138) was 0.678 and the IC50 (QL-X-138) was 2070 nM. It also gave an AUC (CP466722) of 0.658 and an IC50 (CP466722) of 2820 nM.

RVH-421 (melanoma, adherent) showed an AUC ((5Z)-7-Oxozeaenol) of 0.451, an IC50 ((5Z)-7-Oxozeaenol) of 437 nM and an AUC (Cytarabine) of 0.88. For the same cell line, the IC50 (Cytarabine) was > 2000 nM, the AUC (ABT-888) was 0.98 and the IC50 (ABT-888) was > 5000 nM. The AUC (MPS-1-IN-1) was 0.893, the IC50 (MPS-1-IN-1) was > 20000 nM and the AUC (KU-55933) was 0.926. The IC50 (KU-55933) was > 10000 nM, the AUC (Zibotentan) was 0.976 and the IC50 (Zibotentan) was > 20000 nM. The AUC (CHIR-99021; [1]) was 0.914, the IC50 (CHIR-99021; [1]) was > 2560 nM and the AUC (CHIR-99021; [2]) was 0.87. For the same cell line, the IC50 (CHIR-99021; [2]) was > 10000 nM, the AUC (ABT-869) was 0.941 and the IC50 (ABT-869) was > 1020 nM. The AUC (Thapsigargin) was 0.348, the IC50 (Thapsigargin) was 10.3 nM and the AUC (GSK269962A) was 0.861. The IC50 (GSK269962A) was > 5000 nM, the AUC (QL-X-138) was 0.972 and the IC50 (QL-X-138) was > 10200 nM. The AUC (CP466722) was 0.85 and the IC50 (CP466722) was > 16000 nM.

Work on SAS (head and neck, adherent) yielded an AUC ((5Z)-7-Oxozeaenol) of 0.433, an IC50 ((5Z)-7-Oxozeaenol) of 401 nM and an AUC (Cytarabine) of 0.493. The IC50 (Cytarabine) was 120 nM, the AUC (ABT-888) was 0.945 and the IC50 (ABT-888) was > 5000 nM. For the same cell line, the AUC (MPS-1-IN-1) was 0.843, the IC50 (MPS-1-IN-1) was 16600 nM and the AUC (KU-55933) was 0.975. For the same cell line, the IC50 (KU-55933) was > 10000 nM, the AUC (Zibotentan) was 0.983 and the IC50 (Zibotentan) was > 20000 nM. For the same cell line, the AUC (CHIR-99021; [1]) was 0.984, the IC50 (CHIR-99021; [1]) was > 2560 nM and the AUC (CHIR-99021; [2]) was 0.982. For the same cell line, the IC50 (CHIR-99021; [2]) was > 10000 nM, the AUC (ABT-869) was 0.977 and the IC50 (ABT-869) was > 1020 nM. It also gave an AUC (Thapsigargin) of 0.574, an IC50 (Thapsigargin) of 52.1 nM and an AUC (GSK269962A) of 0.956. For the same cell line, the IC50 (GSK269962A) was > 5000 nM, the AUC (QL-X-138) was 0.645 and the IC50 (QL-X-138) was 1700 nM. For the same cell line, the AUC (CP466722) was 0.779 and the IC50 (CP466722) was 7340 nM.

For “SBC-3 (small cell lung carcinoma, adherent)”, the AUC ((5Z)-7-Oxozeaenol) was 0.441, the IC50 ((5Z)-7-Oxozeaenol) was 438 nM and the AUC (Cytarabine) was 0.416. The IC50 (Cytarabine) was 75.5 nM, the AUC (ABT-888) was 0.989 and the IC50 (ABT-888) was > 5000 nM. The AUC (MPS-1-IN-1) was 0.742, the IC50 (MPS-1-IN-1) was 5680 nM and the AUC (KU-55933) was 0.942. The IC50 (KU-55933) was > 10000 nM, the AUC (Zibotentan) was 0.989 and the IC50 (Zibotentan) was > 20000 nM. For the same cell line, the AUC (CHIR-99021; [1]) was 0.952, the IC50 (CHIR-99021; [1]) was > 2560 nM and the AUC (CHIR-99021; [2]) was 0.979. The IC50 (CHIR-99021; [2]) was > 10000 nM, the AUC (ABT-869) was 0.969 and the IC50 (ABT-869) was > 1020 nM. For the same cell line, the AUC (Thapsigargin) was 0.281, the IC50 (Thapsigargin) was 8.19 nM and the AUC (GSK269962A) was 0.927. For the same cell line, the IC50 (GSK269962A) was > 5000 nM, the AUC (QL-X-138) was 0.343 and the IC50 (QL-X-138) was 246 nM. The AUC (CP466722) was 0.603 and the IC50 (CP466722) was 1870 nM.

A lower IC50 marks a more sensitive line; fits outside the tested doses are given as limits. AUC sums up the same curve from the lowest dose to the 256-fold higher top dose: 1 means no effect, lower means more sensitive. For some of these results: An inferred top dose was calculated from the reported fits. For some of these results: Drugs with an entry number were screened twice under separate entries, and the two screens often disagree.
